Assay results: PubChem BioAssay AID1476 (National Center for Advancing Translational Sciences (NCATS), 2009)
Values joined by “and” are separate entries in the source; they are usually repeats but may differ in a detail not shown here. Equal values may be shown once. Among all 200,000 compounds or so, about 4,500 (2.2%) were called active. The shares of active, inactive and inconclusive entries below differ from those in the screen. The call rests on the fitted dose curve; in most records, active means well fitted inhibition curve with a large enough effect; inconclusive means small, poorly fitted or top-dose-only effect, or effect the other way; inactive means flat fitted curve, though single readings scatter. A potency beside an inconclusive call is a rough fit, not a confirmed value.

molecular target: Cruzipain (Trypanosoma cruzi) (UniProt P25779); experiment: qHTS Assay for Promiscuous and Specific Inhibitors of Cruzain (without detergent); details: purified cruzain, Z-FR-AMC fluorescence, no detergent; further: nearly all actives have a fitted effect of over 40% in size;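 on max response, negative = inhibition: plate controls were enzyme without inhibitor for no effect and buffer without enzyme for full effect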
Summary of the method: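 Detergent-free condition (0.00005% Triton X-100) in acetate buffer pH 5.5 with DTT. 1.5 nM enzyme and compound were pre-mixed 15 min, then 2 uM Z-FR-AMC substrate added; reaction progress from fluorescence change between first and third reads (60 s).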
Potency means the concentration at half of the fitted maximal effect; tags describe the fitted curve by direction and shape.

Chain of UniProt P25779 (P25779 whole entry, looked up): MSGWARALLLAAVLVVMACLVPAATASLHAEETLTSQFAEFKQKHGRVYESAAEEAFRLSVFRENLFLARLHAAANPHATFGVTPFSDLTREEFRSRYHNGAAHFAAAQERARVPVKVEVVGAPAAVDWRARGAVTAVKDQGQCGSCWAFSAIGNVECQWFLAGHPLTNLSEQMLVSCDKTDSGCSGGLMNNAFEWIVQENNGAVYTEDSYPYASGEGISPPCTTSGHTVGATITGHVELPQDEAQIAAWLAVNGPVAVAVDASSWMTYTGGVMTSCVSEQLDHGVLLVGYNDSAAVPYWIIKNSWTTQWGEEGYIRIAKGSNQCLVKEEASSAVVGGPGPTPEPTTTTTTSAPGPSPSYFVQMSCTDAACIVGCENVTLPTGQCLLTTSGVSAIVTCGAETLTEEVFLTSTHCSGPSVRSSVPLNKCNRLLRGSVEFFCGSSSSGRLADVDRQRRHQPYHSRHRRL

Row | Structure (SMILES) | Potency | max response, negative = inhibition
1 | CCOc1ccccc1Nc1sc(C(=O)c2ccc(Cl)cc2)c(N)c1C(=O)NCCc1ccccc1 | inconclusive: 39.8 µM [inhibitor, single point] | 
2 | COc1ccc(C2CC(=O)c3cnc(NC(=O)c4ccccc4OC)nc3C2)c(OC)c1 (centres undefined) | inconclusive: 39.8 µM [activator, single point] | 
3 | COc1ccc2nc(SCC(=O)N3CC(=O)Nc4ccccc43)c(C#N)cc2c1 | inconclusive: 25.1 µM [inhibitor, single point] | 
4 | CCCN1CCN(c2ncnc3sc(C(=O)Nc4cccc(Cl)c4C)c(C)c23)CC1 | active: 15.8 µM | 
5 | O=S(=O)(Nc1cccc(-c2ccc(N3CCOCC3)nn2)c1)c1ccccc1C(F)(F)F |  | inactive: 29.5%
6 | O=C(NCc1ccc(Cl)cc1)c1cc(-c2cccs2)on1 | inconclusive: 31.6 µM [inhibitor, single point] | 
7 | CCOCCCNC(=O)C(c1ccc(OC)cc1)N(Cc1ccc2c(c1)OCO2)C(=O)CNC(C)=O (centres undefined) | inconclusive: 31.6 µM [activator, single point] | 
8 | Cc1ccc(-n2nc(C(=O)Nc3cccc(C#N)c3)c3c4ccccc4n(C)c3c2=O)cc1 | inconclusive: 0.0079 µM [activator, full curve, poor fit] | 
9 | O=C(c1cc2nc(-c3cccs3)cc(C(F)(F)Cl)n2n1)N1CCCc2ccccc21 | inconclusive: 31.6 µM [inhibitor, single point] | 
10 | COc1ccccc1-n1c(CNc2c(C)cccc2C)nnc1SCC(=O)N1CCOCC1 | inconclusive: 39.8 µM [activator, single point] | 
11 | O=C(OCC(=O)c1ccc([N+](=O)[O-])cc1)/C(=C/c1ccc(Cl)cc1)NC(=O)c1ccccc1 | active: 15.8 µM | 
12 | N#CC(C(=O)c1ccco1)c1ccccn1 (centres undefined) |  | inactive: -11.2%
13 | Cc1cc2oc(=O)cc(-c3ccccc3)c2c(C)c1-c1ccc(N(C)C)cc1 | active: 14.1 µM | 
14 | Cc1cc2n(n1)CCC(=O)N2Cc1ccc(C(=O)Nc2ccc(Br)c(C)c2)cc1 | inconclusive: 39.8 µM [activator, single point] | 
15 | COc1ccc(CCN2CC(O)=C(c3nc4ccccc4c(=O)[nH]3)C2=N)cc1OC | inconclusive: 12.6 µM [activator, single point] | 
16 | COc1ccc(NC(=O)C(NC(=O)/C=C\c2ccc3c(c2)OCO3)c2ccc(OC)cc2)cc1 (centres undefined) | inconclusive: 39.8 µM [inhibitor, single point] | 
17 | CCOC(=O)C1=C(c2ccccc2)c2cc(OC)ccc2OC1C(=O)OCC (centres undefined) |  | inactive: 7.21%
18 | CN(C(=O)c1ccc2c(c1)N(Cc1ccccc1F)C(=O)c1ccccc1S2(=O)=O)C1CCCCC1 |  | inactive: 18.4%
19 | O=C(Nc1cc(Cl)ccc1Cl)c1cc(S(=O)(=O)N2CCCc3ccccc32)ccc1F |  | inactive: 2.35%
20 | O=C(Nc1ccn(Cc2ccccc2F)n1)c1ccc(COc2ccc(Br)cc2)cc1 | inconclusive: 39.8 µM [inhibitor, single point] | 
21 | CCc1nc(Nc2ccc(N3CCN(C(C)=O)CC3)cc2)c2oc3ccccc3c2n1 | inconclusive: 31.6 µM [activator, single point] | 
22 | COc1ccc2cc1Oc1ccc(cc1)C[C@@H]1c3c(cc(OC)c4c3Oc3cc5c(cc3O4)CCN[C@H]5C2)CCN1C |  | inactive: 1.02%

Row | Structure (SMILES) | Potency | max response, negative = inhibition
23 | O=C1COc2ccc(C(=O)COC(=O)c3sc4ccccc4c3Cl)cc2N1 | inconclusive: 31.6 µM [inhibitor, single point] | 
24 | COc1ccc(N=Nc2nc(-c3ccccc3)c(-c3ccccc3)[nH]2)cc1 | active: 25.1 µM | 
25 | CCOC(=O)c1cc(-c2ccc(F)cc2)n(CCC(=O)NCc2ccccc2OC)c1C |  | inactive: 7.52%
26 | O=C(NCCc1ccccc1)c1ccc(CSc2nc3ccncc3n2Cc2ccccc2F)cc1 |  | inactive: 16.8%
27 | C=CCN(c1cccc(C(F)(F)F)c1)S(=O)(=O)c1cccc(C(=O)OCC(=O)NCCC)c1 | inconclusive: 31.6 µM [activator, single point] | 
28 | CN(C)C(=O)CSc1nnc([C@@H](N)Cc2ccccc2)o1 | active: 25.1 µM | 
29 | COc1ccc(-c2cc(C(=O)N3CCN(c4ccc(F)cc4)CC3)no2)cc1OC | inconclusive: 39.8 µM [activator, single point] | 
30 | CN([C@@H](Cc1ccc(OS(=O)(=O)c2cccc3cnccc23)cc1)C(=O)N1CCN(c2ccccc2)CC1)S(=O)(=O)c1cccc2cnccc12 | inconclusive: 20 µM [inhibitor, single point] and inconclusive: 39.8 µM [inhibitor, single point] | 
31 | O=C(OCC(=O)N1N=C(c2ccc(Cl)cc2)CC1c1ccco1)c1ccccc1O (centres undefined) | inconclusive: 39.8 µM [inhibitor, single point] | 
32 | COc1ccccc1N1CCN(S(=O)(=O)c2ccc3c4c(cccc24)C(=O)N3)CC1 | inconclusive: 39.8 µM [activator, single point] | 
33 | Cc1ccc(CNC(=O)c2sc3nc(-c4ccc(F)cc4)ccc3c2N)cc1 |  | inactive: -26.9%
34 | CCOC(=O)C1=C(CN2CCCCC2)NC(=O)NC1c1ccc(C)cc1 (centres undefined) |  | inactive: -5.56%
35 | CC(C)(C)c1ccc(-c2nc(S(=O)(=O)c3ccccc3)c(N3CCOCC3)o2)cc1 |  | inactive: 7.37%
36 | COc1ccccc1NS(=O)(=O)c1cc([N+](=O)[O-])ccc1N/N=C/c1c[nH]c2ccccc12 | active: 10 µM | 
37 | C[C@@H]1C(c2ccc(F)cc2)=NN(c2ccc(Br)cc2)[C@H]1C(=O)N1CCOC1=O | active: 22.4 µM | 
38 | Cc1ccc(CNC(=O)c2cc3c(s2)-c2ccc(Cl)cc2SC3)cc1 | active: 12.6 µM | 
39 | Cc1c(C(=O)Nc2ccc(F)cc2)oc2ccc(S(=O)(=O)N3CCC4(CC3)OCCO4)cc12 | inconclusive: 39.8 µM [activator, single point] | 
40 | COc1cccc(/C=C2\SC(=O)N(CCC(=O)NNC(=O)c3cccc(Cl)c3)C2=O)c1 | inconclusive: 39.8 µM [inhibitor, single point] | 
41 | O=C(CN1CCN(S(=O)(=O)c2ccc(Br)cc2)CC1)Nc1ccccc1C(=O)c1ccccc1 | inconclusive: 39.8 µM [inhibitor, single point] | 
42 | CCOc1ccc(NC(=O)Nc2cc(-c3ccccc3)sc2C(=O)OC)cc1 | inconclusive: 39.8 µM [inhibitor, single point] | 
43 | c1ccc(OP(Oc2ccccc2)Oc2ccccc2)cc1 |  | inactive: 3.45%
44 | CSc1ccc(/C=N\NC(=O)COc2ccc(Cl)cc2Br)cc1 | inconclusive: 39.8 µM [inhibitor, single point] | 

Row | Structure (SMILES) | Potency | max response, negative = inhibition
45 | COc1ccc(Nc2nc(-c3sc(N)nc3C)cs2)cc1 | active: 15.8 µM | 
46 | O=C(NCCc1ccc(Cl)cc1)c1ccc2c(c1)N(Cc1ccccc1F)C(=O)c1ccccc1S2(=O)=O | inconclusive: 39.8 µM [inhibitor, single point] | 
47 | CCOC(=O)Cc1csc(/N=C/c2c(O)n(-c3ccc(C)c(C)c3)c(=O)c3ccccc23)n1 | inconclusive: 12.6 µM [inhibitor, single point] | 
48 | Cc1nc2ccn(Cc3ccccc3)c(=O)c2cc1C(=O)NCc1ccccc1F | inconclusive: 31.6 µM [activator, single point] | 
49 | Cc1ccc(S(=O)(=O)N/N=c2\oc3ccccc3cc2C(=O)Nc2cccc(C)c2)cc1 | active: 7.94 µM | 
50 | Cc1c(-c2ccccc2)c(=O)oc2c(CN3CCCC3)c(O)ccc12 | inconclusive: 31.6 µM [inhibitor, single point] | 
51 | CCCn1c(=O)c(C)cn2nc(N)nc12 | inconclusive: 39.8 µM [inhibitor, single point] | 
52 | CCOc1ccc(/C=C/c2nc(C#N)c(Nc3ccc(OCC)cc3)o2)cc1 |  | inactive: -26.5%
53 | O=C(Nc1ccc(Cl)c(C(F)(F)F)c1)C(Cc1ccccc1)NS(=O)(=O)c1cccc2nsnc12 (centres undefined) | active: 20 µM | 
54 | COC(=O)c1cc(NC(=O)c2cccc(C(F)(F)F)c2)c(=O)oc1C/C=N/OCc1cccc(Cl)c1Cl | active: 0.794 µM | 
55 | Cc1nn(-c2ccc(N3CCOCC3)nn2)c(C)c1CCC(=O)Nc1ccc(F)cc1F | inconclusive: 25.1 µM [activator, partial curve, poor fit] | 
56 | COC(=O)c1c(NC(=O)C2(C)Cc3ccccc3C(=O)O2)sc2c1CCCC2 (centres undefined) | inconclusive: 3.16 µM [inhibitor, partial curve] | 
57 | O=C(CSc1nccn1Cc1ccc(Cl)cc1)Nc1ccc2c(c1)OCO2 |  | inactive: -6.51%
58 | CC(C)(C)n1nnnc1C(c1ccc(Cl)cc1)N1CCSCC1 (centres undefined) |  | inactive: -17.6%
59 | COCCn1c(N)c(C(=O)NCc2cccs2)c2nc3ccccc3nc21 | inconclusive: 31.6 µM [activator, partial curve] | 
60 | CC(C)COc1ccc(CNC(=S)N/N=C/c2ccc([N+](=O)[O-])cc2)cc1 | inconclusive: 15.8 µM [inhibitor, partial curve, poor fit] | 
61 | O=S(=O)(NCCc1csc2nc(-c3ccc(Cl)cc3)nn12)c1ccc2c(c1)OCCO2 |  | inactive: -7%
62 | COc1ccc(O[C@H]2C=C[C@@H](c3ccccc3)O[C@@H]2COC(=O)CC/C(C)=N/OC[C@@H](O)[C@H]2O[C@@H]3OC(C)(C)O[C@@H]3[C@H]2O)cc1 | inconclusive: 25.1 µM [activator, partial curve] | 
63 | O=C(/C=C/c1ccco1)NC(=S)Nc1nc(-c2ccc3ccccc3c2)cs1 | active: 3.98 µM | 
64 | COC(=O)C(Cc1ccc(OC(=O)c2ccc(C(F)(F)F)cc2)cc1)N1Cc2ccccc2C1=O (centres undefined) | inconclusive: 31.6 µM [activator, single point] | 
